Measurements as given in a collection of fitness landscapes (doi:10.1016/j.celrep.2020.107928).
Whole data set: some 81,000 sequences, median “one-hybrid fitness for binding parS DNA” near -0.17, cut for the highest 2% near 0.51. The list shows a part of the results.

B1: Caulobacter ParB omega fusion; a variant is named by its letters at X, in order, B8GW30 (parent)
chain: MESVVVGEPGMSEGRRGLGRGLSALLGEVDAAPAQAPGEQLGGSREAPIEILQRNPDQPRRTFREEDLEDLSNSIREKGVLQPILVRPSPDTAGEYQIVAGERAWRAAQRAGLKTVPIMVRELDDLAVLEIGIIENVQRADLNVLEEALSYKVLMEKFERTQENIAQTIGKSXSHVANXMRLLXLPDEVQSYLVSGELTAXHARAIAAAADPVALAKQIIEGGLSVRETEALARKAPNLSAGKSKGGRPPRVKDTDTQALESDLSSVLGLDVSIDHRGSTGTLTITYATLEQLDDLCNRLTRGI

Variants of: B1
Experiment: one-hybrid fitness for binding parS DNA (scaled: cognate 1, non-cognate 0); higher = stronger binding
Conditions: with parS DNA site
How it was run: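 On M9-minus-histidine containing 0.1 mM IPTG and 5 mM 3-AT, E. coli USO cells with a HIS3 reporter, site 19 bp from the promoter, grew 48 hours at 37°C to select Caulobacter ParB libraries randomised at four specificity codons. Plasmids from before and after were Illumina-sequenced, with three replicate libraries pooled and variants under 10 reads left out. Fitness is the log change in variant-to-wild-type read ratio, rescaled against cognate and non-cognate.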

one-hybrid fitness for binding parS DNA, 0.905:
RKTG

one-hybrid fitness for binding parS DNA, 0.309:
RMEM

one-hybrid fitness for binding parS DNA, 0.237:
RELS

one-hybrid fitness for binding parS DNA, 0.966:
RADS

one-hybrid fitness for binding parS DNA, ≤ 0.2:
QRMH
TLEE
GLCL
DWNC
MPVQ
NNPK
SRNS
RSPV
YRQE
REWR
DKDT
WRDG
RPER
HKIL
MHSD
GTTN
AYDV
ASMS
MREG
YAAY
VYIS
DDKT
NAAC
DPNR
YLIW
HLPK
KLRR
IRPR
ITGS
AIRT
GCGL
DPTC
CVAQ
PRPY
HIRG
ENDG
PAKI
RKEW
AAQK
YLNT
VMTT
LCAT
TYEH
TPVM
NQWK
NCCR
HAHV
PICC
EHVL
QNCM
CLSR
IGGS
DRGT
STHC
VAQV
IMNC
ADRK
EFDG
PIGV
VMTW
MRLY
HHEK
GGYS
LAKC
KESY
VQNV
SLAT
IPDC
SRTR
PELG
QIDF
DPYY
DMHE
QTPM
CHSG
GFNY
AQRH
LTKY
GNLV
QQGE
TGVA
HTIT
HPQK
PTQH
KSSP
LCLG
CAPW
PQST
QTAT
TLKC
DPQS
QRFY
SFYG
FPPK
TYIP
QHAK
EQHV
TVST
WLFG
WNIP
SHDL
TMQG
SCPC
KYRK
QLMM
QQMP
SLFR
VAKP
HHPP
SRRM
QLSY
TKTH
RSRL
CCPD
TQMS
GKMT
MRDG
NCQT
RGKF
GINR
FWKY
ESAR
FTCS
NMKW
QKES
TKRK
WWSR
HRDE
PWKR
TTMA
KKFG
IVGT
MTDN
CTAL
AKMA
HTLH
DQEG
PALV
QHEG
WGRC
EDFV
YSSI
YTSD
REQT
QKFC
YVLI
PSGC
VYCV
QIWY
YSTG
SRGG
WGIG
QRES
CYHT
STSG
NRIR
PEER
ICSR
SDIM
FHRK
LDSD
PVDI
RYHF
QYHT
SYKH
WENR
TLWC
ATRI
DDYR
VLFT
KLGL
WLNP
HSVN
SFRG
PLAF
YLRA
LYCR
PGED
QHQR
PCST
VNPR
ICCS
YASN
SLDG
MRKT

one-hybrid fitness for binding parS DNA, 0.429:
RHGY

one-hybrid fitness for binding parS DNA, 0.218:
RGSN

one-hybrid fitness for binding parS DNA, 0.214:
EGEG

one-hybrid fitness for binding parS DNA, 0.867:
RMRC

one-hybrid fitness for binding parS DNA, 0.698:
RRGG

one-hybrid fitness for binding parS DNA, 0.228:
RTFF
